Laboratory results as given in the supplement of paper PMC8728848.
This is one part of the list.

Assays:
Experiment in all cases: glycan array binding signal (z-score within array); higher = stronger binding
Details in all cases: glycan notation: IUPAC condensed, linker removed
[1] = target: Neu5Ac(a2-6)Gal(b1-4)GlcNAc(b1-3)Gal(b1-4)GlcNAc
In short: (§1)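 Glycan array binding is given as a within-array Z-score, which can be read as non-binding when negative. The arrays, 3228 of them, came from the Consortium for Functional Glycomics database and were retained only where the protein sequence was available. Z-scores were averaged across arrays of the same protein sequence at different concentrations or buffers and across linkers.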

[2] = target: Neu5Ac(a2-6)Gal(b1-4)GlcNAc(b1-3)Gal(b1-4)GlcNAc(b1-3)Gal(b1-4)GlcNAc
In short: as §1

[3] = target: Neu5Ac(a2-6)Gal(b1-4)GlcNAc(b1-3)Gal(b1-4)[Fuc(a1-3)]GlcNAc(b1-3)Gal(b1-4)[Fuc(a1-3)]GlcNAc
In short: as §1

[4] = target: Neu5Ac(a2-6)Gal(b1-4)GlcNAc(b1-3)GalNAc
In short: as §1

[5] = target: Neu5Ac(a2-6)Gal(b1-4)GlcNAc6S
In short: as §1

Neu5Ac(a2-6)GalNAc = target: Neu5Ac(a2-6)GalNAc
In short: as §1

[6] = target: Neu5Ac(a2-6)GalNAc(b1-4)GlcNAc
In short: as §1

[7] = target: Neu5Ac(a2-6)GlcNAc(b1-4)GlcNAc
In short: as §1

[8] = target: Neu5Ac(a2-6)GlcNAc(b1-4)GlcNAc(b1-4)GlcNAc
In short: as §1

Neu5Ac(a2-8)Neu5Ac = target: Neu5Ac(a2-8)Neu5Ac
In short: as §1

[9] = target: Neu5Ac(a2-8)Neu5Ac(a2-3)Gal(b1-4)Glc
In short: as §1

[10] = target: Neu5Ac(a2-8)Neu5Ac(a2-3)[GalNAc(b1-4)]Gal(b1-4)Glc
In short: as §1

[11] = target: Neu5Ac(a2-8)Neu5Ac(a2-8)Neu5Ac
In short: as §1

[12] = target: Neu5Ac(a2-8)Neu5Ac(a2-8)Neu5Ac(a2-3)Gal(b1-4)Glc
In short: as §1

[13] = target: Neu5Ac(a2-8)Neu5Ac(a2-8)Neu5Ac(a2-3)[GalNAc(b1-4)]Gal(b1-4)Glc
In short: as §1

[14] = target: Neu5Ac(a2-8)Neu5Ac(a2-8)Neu5Ac(a2-8)Neu5Ac(a2-3)[GalNAc(b1-4)]Gal(b1-4)Glc
In short: as §1

[15] = target: Neu5Ac(b2-6)Gal(b1-4)GlcNAc
In short: as §1

Neu5Ac(b2-6)GalNAc = target: Neu5Ac(b2-6)GalNAc
In short: as §1

[16] = target: Neu5Ac9Ac(a2-3)Gal(b1-3)GlcNAc
In short: as §1

[17] = target: Neu5Ac9Ac(a2-3)Gal(b1-4)GlcNAc
In short: as §1

[18] = target: Neu5Ac9Ac(a2-6)Gal(b1-4)GlcNAc
In short: as §1

[19] = target: Neu5Gc(a2-3)Gal(b1-3)GlcNAc
In short: as §1

[20] = target: Neu5Gc(a2-3)Gal(b1-3)[Fuc(a1-4)]GlcNAc
In short: as §1

Neu5Gc(a2-3)Gal(b1-4)Glc = target: Neu5Gc(a2-3)Gal(b1-4)Glc
In short: as §1

[21] = target: Neu5Gc(a2-3)Gal(b1-4)GlcNAc
In short: as §1

[22] = target: Neu5Gc(a2-3)Gal(b1-4)[Fuc(a1-3)]GlcNAc
In short: as §1

[23] = target: Neu5Gc(a2-6)Gal(b1-4)GlcNAc
In short: as §1

Neu5Gc(a2-6)GalNAc = target: Neu5Gc(a2-6)GalNAc
In short: as §1

[24] = target: Neu5Gc(b2-6)Gal(b1-4)GlcNAc
In short: as §1

B1: Flo5 (Saccharomyces cerevisiae), P38894 (protein)
chain: MGSSHHHHHHSSGLVPRGSHMSGATEACLPAGQRKSGMNINFYQYSLKDSSTYSNAAYMAYGYASKTKLGSVGGQTDISIDYNIPCVSSSGTFPCPQEDSYGNWGCKGMGACSNSQGIAYWSTDLFGFYTTPTNVTLEMTGYFLPPQTGSYTFSFATVDDSAILSVGGSIAFECCAQEQPPITSTNFTINGIKPWDGSLPDNITGTVYMYAGYYYPLKVVYSNAVSWGTLPISVELPDGTTVSDNFEGYVYSFDDDLSQSNCTIPDPSIH
glycan array binding signal (z-score) [1]: -0.264
glycan array binding signal (z-score) [2]: -0.161
glycan array binding signal (z-score) [3]: -0.189
glycan array binding signal (z-score) [4]: -0.202
glycan array binding signal (z-score) [5]: 0.476
glycan array binding signal (z-score) (Neu5Ac(a2-6)GalNAc): -0.152
glycan array binding signal (z-score) [6]: -0.089
glycan array binding signal (z-score) [7]: -0.135
glycan array binding signal (z-score) [8]: -0.235
glycan array binding signal (z-score) (Neu5Ac(a2-8)Neu5Ac): -0.148
glycan array binding signal (z-score) [9]: -0.171
glycan array binding signal (z-score) [10]: -0.104
glycan array binding signal (z-score) [11]: -0.209
glycan array binding signal (z-score) [12]: -0.125
glycan array binding signal (z-score) [13]: 0.852
glycan array binding signal (z-score) [14]: -0.149
glycan array binding signal (z-score) [15]: 0.104
glycan array binding signal (z-score) (Neu5Ac(b2-6)GalNAc): -0.154
glycan array binding signal (z-score) [16]: -0.185
glycan array binding signal (z-score) [17]: -0.126
glycan array binding signal (z-score) [18]: -0.036
glycan array binding signal (z-score) [19]: 0.375
glycan array binding signal (z-score) [20]: -0.16
glycan array binding signal (z-score) (Neu5Gc(a2-3)Gal(b1-4)Glc): -0.122
glycan array binding signal (z-score) [21]: -0.131
glycan array binding signal (z-score) [22]: -0.116
glycan array binding signal (z-score) [23]: -0.098
glycan array binding signal (z-score) (Neu5Gc(a2-6)GalNAc): -0.22
glycan array binding signal (z-score) [24]: -0.005
